Screen size: about 360,000 compounds; about 17,000 (4.7%) were called active. The shares of active, inactive and inconclusive entries below differ from those in the screen. Rule as the data show it: active = activity change below about -50%; inconclusive = mostly about -30% to -49%; inactive = weaker than that.
Assay: qHTS for Inhibitors of Inflammasome Signaling: IL-1-beta AlphaLISA Primary Screen
Conditions: THP-1 LPS/ATP IL-1B secretion, 16 h; at 57.5 µM, active compounds read low
In short: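 Secreted IL-1B measured by AlphaLISA bead assay after 16 h compound exposure of THP-1 cells; compounds (final up to 57.5 uM) added 1 h before LPS (250 ng/mL) and ATP (1.25 mM) stimulation; lower signal means less secretion.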
% is scaled to controls: 0 for no effect and ±100 for the full control effect.

Structure (SMILES) | activity change
Nc1c(Cl)cc(N=Nc2ccccc2)cc1Cl | inactive: -5.66%
CC(C)N(C(=O)[C@H]1C[C@H](CC(=O)NCCc2ccccn2)C(=O)N2CCc3c([nH]c4cc(-c5ccco5)ccc34)[C@]12C)C(C)C | inconclusive: -39%
COCCN1C(=O)COc2ccccc2C1C(=O)Nc1ccc2c(c1)OCCO2 (stereo unspecified) | inconclusive: -43.8%
COc1ccc(C(=O)CN2C(=O)NC3(CCCCCC3)C2=O)c(OC)c1 | inconclusive: -42.6%
CSc1ncnc2c1ncn2CCCNC1CCN(Cc2ccccc2)CC1 | inconclusive: -33.5%
Cc1cc(C(=O)COC(=O)/C=C/c2ccco2)c(C)n1C | inconclusive: -34.1%
Cc1ccc(-c2n[nH]c(=S)n2/N=C/c2cccn2C)cc1 | inactive: 1.62%
COc1ccc(CNC(=O)COC(=O)CN2C(=O)C3CC=CCC3C2=O)cc1 (stereo unspecified) | inactive: -3.57%
COc1ccc(N2C(=O)[C@H]3CCC=C[C@H]3[C@@H]2c2ccccc2Br)cc1 | inactive: 8.62%
CCOc1ccc(NC(=O)Nc2cc(C)ccc2OC)cc1 | inconclusive: -36.2%
COc1ccccc1NC(=O)NNC(=O)c1ccc(-c2ccccc2)cc1 | inconclusive: -30.1%
COc1cccc(N2CCN(C(=O)Nc3ccccc3Cl)CC2)c1 | inconclusive: -37%
COc1cccc(-c2cccc(-c3nc(C(=O)NCc4ccc(Oc5ccccc5)cc4)cc4c3[C@H](CCO)N(S(=O)C(C)(C)C)C4)c2)c1 (stereo partly specified) | inconclusive: -48.4%
CCC1Oc2ccc(C)cc2N(CC(=O)N(Cc2ccc3c(c2)OCO3)CC2CCCO2)C1=O (stereo unspecified) | inconclusive: -46.6%
CC(Oc1ccc(Br)cc1)C(=O)NC1CCCCCC1 (stereo unspecified) | inconclusive: -35.7%
O=C(COc1ccc(F)cc1)Nc1ccc(-n2cnnn2)cc1 | inconclusive: -38.6%
Cc1ccc(NC(=S)Nc2ccc(Cl)c(Cl)c2)c(OC(F)F)c1 | inconclusive: -49.9%
Cc1ccc(-c2cc(C(=O)NCCCN3CCCC3)c3ccccc3n2)cc1C | active: -73.1%
CCCCn1cnc2c(SCCc3ccccc3)nc(N)nc21 | inconclusive: -34.2%

Structure (SMILES) | activity change
NS(=O)(=O)c1ccc2nc(NC(=O)Nc3ccc(F)cc3)sc2c1 | inconclusive: -46.7%
COc1ccc2ccccc2c1CN1CCN(C(=O)c2ccco2)CC1 | active: -52.1%
Cc1[nH]c2ccccc2c1-c1csc(NC(=O)CSCCO)n1 | inconclusive: -47.4%
CCn1c(C)c(C)c2cc(C(=O)NCCCN3CCCCCC3)ccc21 | inconclusive: -40%
COc1ccc(CCNC(=O)CSc2ccsc2[N+](=O)[O-])cc1OC | inconclusive: -38.9%
COc1ccc([C@H]2CC(=O)C=C(c3ccc4c(c3)OCO4)C2)cc1OC | inconclusive: -38.2%
Cc1ccc(Nc2nc(C(=O)N3CCC(C(=O)NCc4ccccc4)CC3)cs2)cc1 | inconclusive: -35%
C#CCSc1nncn1C(=O)/C=C/c1ccccc1 | active: -80.7%
C#CCNC(=O)C[C@@H]1C[C@@]2(C(=O)OC)CCCCC=C2N(Cc2ccc3c(c2)OCO3)C1=O | inactive: 10.9%
Cn1ncc([N+](=O)[O-])c1C(=O)Nc1cc(Cl)ccc1Cl | inactive: -5.95%
FC(F)(F)Oc1ccc(-c2cn3cccnc3n2)cc1 | inconclusive: -32.7%
O=C(NCc1ccccc1CN1CCCC1)c1cc2ccccc2o1 | inconclusive: -41%
COc1ccc(CC(N)c2csc(Nc3cc(NCc4ccco4)ncn3)n2)cc1 (stereo unspecified) | active: -51.1%
O=C(CCCCl)NC(=S)Nc1cc(C(F)(F)F)ccc1N1CCOCC1 | inconclusive: -41.3%
Cc1cc(OCC(=O)N(C(C)C)C(C)C)cc(C)c1Br | inconclusive: -33.1%
CCOC(=O)c1c(-c2ccc(C)o2)csc1NC(=O)CN1CCCCC1 | inconclusive: -33.9%
CC(C)CN(C)Cc1c(C(=O)N2CCc3ccccc3C2)nc2ccc(Cl)cn12 | active: -82.8%
Cc1cccc(NC(=O)c2sc3nc4c(c(-c5ccco5)c3c2N)CCC4)c1 | inconclusive: -40%
CCN(CCO)Cc1csc2ccc(C(C)(C)C)cc12 | active: -56.5%

Structure (SMILES) | activity change
O=C1[C@H]2CCCC[C@H]2C(=O)N1CCCCN1CCN(c2nsc3ccccc23)CC1 | active: -65%
Cc1nc(N2CCCCC2)sc1C(=O)c1cccc([N+](=O)[O-])c1 | active: -103%
CCOC(=O)c1ccc(N(CC2CO2)S(=O)(=O)c2ccc(C)cc2)cc1 (stereo unspecified) | inconclusive: -38.6%
CC1=C(C(=O)OC2CCCCCCC2)C(c2cc3c(cc2Br)OCO3)CC(=O)N1 (stereo unspecified) | active: -58.5%
O=C(C=Cc1ccco1)c1ccc([N+](=O)[O-])cc1 | inactive: -25%
COc1ccccc1N1CCN(C2CCCN(Cc3ccc(Cl)cc3)C2)CC1 (stereo unspecified) | inconclusive: -38.1%
COCCN1Cc2cccc(C(=O)Nc3cccc(OC)c3)c2C1=O | inconclusive: -42.3%
O=C(O)CC(CCc1ccccc1)OC1OC(CO)C(O)C(O)C1O (stereo unspecified) | inactive: -13.4%
CC[n+]1cc(C)ccc1/C=C/c1ccc(N(C)C)cc1 | inconclusive: -30.1%
Cc1ccc(Cn2c(NCCc3ccccc3)nc3c2c(=O)n(C)c(=O)n3C)cc1 | inconclusive: -43.3%
COc1cccc(NC(=O)CSc2nnc(-c3ccco3)c(-c3ccco3)n2)c1 | inactive: -6.34%
OCC1(CCCc2ccccc2)CCN(C2CCSCC2)CC1 | active: -69.6%
O=C(Cn1nc(-c2ccc(N3CCOCC3)c([N+](=O)[O-])c2)c2ccccc2c1=O)N1CCCCC1 | inconclusive: -36.6%
COc1ccc2nc(-c3ccccc3)cc(C(=O)OCC(=O)N3CC(C)OC(C)C3)c2c1 (stereo unspecified) | inconclusive: -46.3%
Cc1ccc(Cn2nnc3c(=O)[nH]c(C4CCN(S(=O)(=O)c5ccc(C)cc5)CC4)nc32)cc1 | inconclusive: -37%
COc1ccc(-c2n[nH]c(C)c2-c2cscn2)c(O)c1 | inactive: -7.02%
O=C(/C=C/c1ccco1)c1cccc([N+](=O)[O-])c1 | inconclusive: -36.2%
CCCn1c(=O)c(C(=O)NNS(=O)(=O)c2ccc(Cl)cc2)c(O)c2ccccc21 | inconclusive: -49.5%

Source: PubChem BioAssay AID743279 (National Center for Advancing Translational Sciences (NCATS), 2014)
